In PubChem BioAssay (NCI):
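Values below derive from 48-hour exposures of cells grown in 96-well plates, with endpoints linearly interpolated between the two concentrations bracketing the appropriate inhibition level. The concentration for 50% growth inhibition is given as GI50. TGI marks complete inhibition of growth.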

Test system: NCI-H322M lung
Assay: DTP human tumour cell line panel, 48 h

Compound | GI50 [µM] | TGI [µM]
COC1=C[C@]23CCC(=O)N2CCc2cc4c(cc2[C@@H]3[C@@H]1OC(=O)[C@H](C)O)OCO4 | 18.4 | > 52
COc1ccc2c(c1)c(/C=N/Nc1ccc3ccccc3n1)cn2C | 14.1 | 28.2
